These results are taken from patent US20210002376A1 (UNIVERSIT T STUTTGART, published 2021).

This assay has as its target T1, HER3-Fc fusion protein.
T1 construct: range […]; Coated antigen in ELISA; not shown: Fc part of the fusion, not described
The assay is described as follows: ELISA, coated HER3-Fc, anti-human Fab-HRP. (An ELISA detects its analyte on a solid surface through an enzyme-linked reagent.)

By EC50 is commonly meant the concentration needed to bring the measured effect to its halfway point. Read a low EC50 as a more potent agent.

B1: Db3-43x4D5-Fab-Fckih (bispecific antibody)
heavy 1: [about 120 residues not written out]GGGGSQAGLTQPPAVSVAPGQTASITCGRDNIGSRSVHWYQQKPGQAPVLVVYDDSDRPAGIPERFSGSNYENTATLTISRVEAGDEADYYCQVWGITSDHVVFGGGTKLTVLASTKGPSVFPLAPSSKSTSGGTAALGCLVKDYFPEPVTVSWNSGALTSGVHTFPAVLQSSGLYSLSSVVTVPSSSLGTQTYICNVNHKPSNTKVDKKVEPKSCGTDKTHTCPPCPAPPVAGPSVFLFPPKPKDTLMISRTPEVTCVVVDVSHEDPEVKFNWYVDGVEVHNAKTKPREEQYNSTYRVVSVLTVLHQDWLNGKEYKCKVSNKGLPSSIEKTISKAKGQPREPQVCTLPPSRDELTKNQVSLSCAVKGFYPSDIAVEWESNGQPENNYKTTPPVLDSDGSFFLVSKLTVDKSRWQQGNVFSCSVMHEALHNHYTQKSLSLSPGK
heavy 2: QVQLQQSGPGLVKPSQTLSLTCAISGDSVSSNRAAWNWIRQSPSRGLEWLGRTYYRSKWYNDYAQSLKSRITINPDTPKNQFSLQLNSVTPEDTAVYYCARDGQLGLDALDIWGQGTMVTVSSGGGG[about 200 residues not written out][about 250 residues not written out]
notes: Two different polypeptides; also called bispecific, bivalent diabody fusion protein targeting HER2 (4D5) and HER3 (3-43)
As to B1, the EC50 is 1.1 nM.
